In all, about 45,000 compounds went through this assay and about 65 (0.1%) were called active. Calls follow the shape of the dose curve; as a rule, active = well fitted activation curve with a large enough effect; inconclusive = small, poorly fitted or top-dose-only effect; inactive = no such curve, though single readings can be large or run the other way. The list shows a part of the results.
These compounds were tested against Galactocerebrosidase (Homo sapiens) (UniProt P54803) (assay: A Novel Cell-Based Assay to Identify Small Molecules for B -Galactocerebrosidase). Settings: 145M-Twi-hGALC-G270D cells, HMU-beta-Gal fluorescence, 48 h; series mostly up to 57.5 µM; activation: at the top concentration.
Sequence of UniProt P54803 (P54803 whole entry, looked up): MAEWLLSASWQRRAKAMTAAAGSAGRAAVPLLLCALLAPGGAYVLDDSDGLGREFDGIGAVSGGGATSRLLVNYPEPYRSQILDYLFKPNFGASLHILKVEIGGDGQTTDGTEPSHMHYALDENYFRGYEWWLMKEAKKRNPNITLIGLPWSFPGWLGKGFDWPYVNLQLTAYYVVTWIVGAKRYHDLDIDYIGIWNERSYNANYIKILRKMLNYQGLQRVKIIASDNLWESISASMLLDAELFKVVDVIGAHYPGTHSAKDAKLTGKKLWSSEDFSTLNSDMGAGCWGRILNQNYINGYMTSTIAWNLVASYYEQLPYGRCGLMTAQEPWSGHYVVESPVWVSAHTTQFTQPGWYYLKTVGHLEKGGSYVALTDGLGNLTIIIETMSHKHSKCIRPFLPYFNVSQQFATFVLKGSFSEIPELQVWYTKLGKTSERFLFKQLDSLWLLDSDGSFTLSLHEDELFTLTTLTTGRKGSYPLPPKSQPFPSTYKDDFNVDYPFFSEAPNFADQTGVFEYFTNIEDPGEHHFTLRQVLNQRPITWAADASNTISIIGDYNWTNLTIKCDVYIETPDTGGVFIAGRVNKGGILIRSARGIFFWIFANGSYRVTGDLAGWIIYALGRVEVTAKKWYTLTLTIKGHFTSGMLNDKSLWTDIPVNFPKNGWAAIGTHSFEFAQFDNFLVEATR
Procedure, shortened: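 qHTS, 1536-well; 145M-Twi-hGALC-G270D cells (WT line also made) in DMEM/F12 + 10% FBS; compound incubation on live cells; HMU-β-gal 0.1 mM final, pH 5.2, NaTC; carbonate stop; fluorescence increase = enhanced residual activity.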
Also: 0% is about no effect; nearly all actives have a fitted effect of over 65% in size.

activation, inactive:
CC(C)(C)OC(=O)N1CCC(c2c(C(=O)Nc3ccc4c(c3)OCCO4)cnn2-c2ccc(F)cc2F)CC1 -10.6%
CCOC(=O)C(=O)NCC(c1cccnc1)N1CCN(c2ccccc2)CC1 (stereo not given) -9.02%
CCOC(=O)CC(NC(=O)c1cc2cc(Br)cc(OC)c2oc1=O)c1ccc(OC)cc1 (stereo not given) -0.743%
O=C(NCc1ccc2c(c1)CCN2C(=O)c1ccncc1)c1ccccc1Cl -11.6%
COc1cccc(N2CCN(C(=O)C3CCCN(S(=O)(=O)c4ccc5c(c4)oc(=O)n5C)C3)CC2)c1 (stereo not given) -14.7%
COc1ccccc1CCNC(=O)C(=O)NCC(c1ccco1)S(=O)(=O)c1ccc(F)cc1 (stereo not given) -12%
Cn1c2ccccc2c2c(C(=O)N3CCN(c4cccc(Cl)c4)CC3)cn(C3CCCCC3)c(=O)c21 -14.8%
COc1ccc(OC)c(CCNC(=O)c2cc3cccc4c3n2CC(C)S4)c1 (stereo not given) -48.3%
Cn1c(=O)c2c(nc(CN3CCN(c4ccccc4F)CC3)n2Cc2ccccc2F)n(C)c1=O -25.8%
Cn1c(=O)n(C)c2cc(N3CCOCC3)c(NC(=O)c3ccc(Cl)cc3)cc21 -17.4%
COc1cccc(CNC(=O)CCCn2ncn3c(cc4occc43)c2=O)c1OC 2.31%
CCSc1ncc(Cl)c(C(=O)Nc2ccc(S(=O)(=O)Nc3ncccn3)cc2)n1 -15.4%
Cc1cccc(C(=O)Nc2nc3nc(-c4ccccc4)cc(=O)n3[nH]2)c1 -7.22%
CCCOC(C(=O)OC1CCN(C)CC1)(c1ccccc1)c1ccccc1 -4.79%
O=C(CCS(=O)(=O)c1cc(Br)cc2c1N(C(=O)C1CC1)CC2)N1CCN(c2cccc(C(F)(F)F)c2)CC1 -17.5%
O=C(Cn1c(=O)n(Cc2ccc(C(=O)NCc3ccc4c(c3)OCO4)cc2)c(=O)c2ccccc21)Nc1ccccc1F -13.1%
Cc1cccc(N2C(=O)N(Cc3cccc(C#N)c3)c3ccccc3S2(=O)=O)c1 -6.84%
Cc1ccc(CSc2nc3ccncc3n2Cc2nc(-c3ccccc3C)oc2C)cc1 -5.33%
CCCNC(=O)c1c(NC(=O)c2ccccc2)sc2c1CCC(C(C)(C)C)C2 (stereo not given) -12.6%
COc1ccc(CCNC(=O)CS(=O)(=O)Cc2nc(-c3cccc(Cl)c3)oc2C)cc1OC -11.2%
COc1ccc(-c2cc(C(=O)NCCc3ccccc3)c3c(-c4ccc(Cl)cc4)[nH]nc3n2)cc1 -8.96%
C1N2CN3CN1CN(C2)C3 -9.15%
COc1ccc(CNC(=O)c2cccn2-c2nnc(N3CCCCC3)s2)c(OC)c1 -20.8%
CC(C)(C)c1ccc(C(=O)NC(Cc2c[nH]c3ccccc23)C(=O)OCC(=O)c2ccc(Br)cc2)cc1 (stereo not given) -13.6%
COc1ccc2c(c1)c1c(c(=O)n(-c3cccc(C)c3)c(=O)n1CC(=O)NCc1ccc(C)cc1)n2C -11.9%
CC(C)N(Cc1nc(-c2ccc(Cl)cc2)no1)C(=O)c1ccco1 -43.4%
CCCc1nnc(NC(=O)C(CC)Sc2nnc3c4ccccc4n(C)c3n2)s1 (stereo not given) -11.6%
COc1ccc(CNC(=O)c2sc3nc4n(c(=O)c3c2C)CCC4)cc1 -19%
COc1ccc(-n2ccn(CC(=O)Nc3ccc(C)cc3C)c(=O)c2=O)cc1 -14.6%
Cc1ccc(OCC(=O)Nc2ccc3nn(-c4ccc(C)cc4)nc3c2)cc1 -18.3%
COC(=O)c1cc(C)nc2c1c(=O)nc(SCc1ccccc1Cl)n2C1CC1 -15.2%
Cn1cnc(S(=O)(=O)N2CCC(C(=O)Nc3ccc(Cl)c(C(F)(F)F)c3)CC2)c1 -13.7%
CCOC(=O)N1CCC2(CC1)OC(=O)C(C)=C2C(=O)NCc1ccccc1OC -9.66%
COc1ccccc1N1CCN(C(=O)CNS(=O)(=O)c2ccc(Br)s2)CC1 -1.23%
CCc1nnc2c(Nc3ccccc3Br)nc3ccccc3n12 -6.19%
Cc1cccc(CCNC(=O)CCS(=O)(=O)c2cc3c(cc2C)NC(=O)CO3)c1 3.43%
Cc1nn(CCC(=O)Nc2ccccc2Br)c(=O)c2nn(-c3ccccc3)c(C)c12 -10%
CCOC(=O)c1cc(-c2ccc(C)cc2)n(CC(=O)Nc2ccc(OC)cc2OC)c1C -7.25%
Cc1ccc(NC(=O)CSc2nccn2C2CCCC2)cc1Cl -3.65%
Cc1cccc(C(C)C)c1NC(=O)c1ccc2c(c1)CCCN2S(C)(=O)=O -9.88%
CCCn1cc(S(=O)(=O)c2cccc(Cl)c2)c(=O)c2cc(F)c(N3CCCC3)cc21 -7.43%
Cc1cc(Cl)ccc1OCC(=O)N(Cc1ccc(N(C)C)cc1)C1CCS(=O)(=O)C1 (stereo not given) -22%
CCc1cc(=O)[nH]c(SCc2nc(-c3ccc(C(F)(F)F)cc3)no2)n1 -3.49%
COc1ccc(N2CCN(C(c3ccc(F)cc3)c3sc4nc(-c5ccco5)nn4c3O)CC2)cc1 (stereo not given) -3.63%
Cc1ccc(OCC(=O)Nc2nonc2-c2ccc(Br)cc2)cc1 -18.9%
CC(=O)N1CCCC1c1nc2ccccc2n1Cc1ccccc1F (stereo not given) 6.52%
CCC(C)NC(=O)c1cnn(-c2cccc(F)c2)c1-n1cccc1 (stereo not given) 2.43%
CCN1CCN(C(c2ccc(F)cc2)c2sc3nc(-c4ccco4)nn3c2O)CC1 (stereo not given) -34.5%
Cc1ccc(S(=O)(=O)N(CC(=O)NCCSc2ccc(Cl)cc2)c2cccc(Cl)c2)cc1 -14.5%
Cc1ccc(S(=O)(=O)CCC(=O)N2CCN(c3nc4c(C)c(C)ccc4s3)CC2)cc1 -46%
CCCC(=O)Nc1ccc2nc(SCC(=O)N3CCOCC3)sc2c1 -8.84%
CC(C)OCCCNC(=O)CN1C(=O)c2ccccc2Sc2ncccc21 -10.6%
O=C(Nc1cccc2c1CCCC2)N1CCOc2ccc(Cl)cc21 2.02%
N#C/C(=C\c1ccc(-c2cccc(Cl)c2)o1)C(=O)Nc1cccc(C(F)(F)F)c1 14.8%
Cc1oc2ncnc(N3CCOCC3)c2c1C(=O)NCc1ccc(Cl)cc1 -10.6%
Fc1ccc(N2CCN(c3ncnc4[nH]ncc34)CC2)cc1 -21.3%
CC(C)c1cc(-c2nc(-c3cccc(Cl)c3)no2)n[nH]1 -17.6%
CCOc1ccc(CNC(=O)CSc2c3c(nc4ccc(Cl)cc24)CCCC3)cc1 -8.62%
COc1ccc(C)c2sc(N3CCN(C(=O)c4ccco4)CC3)nc12 2.11%
COc1ccccc1N1CCN(c2cc(C)nc3nncn23)CC1 11.8%
Cc1ccc(CNC(=O)Cn2c3ncccc3c(=O)n2-c2ccc(C)cc2)cc1 -18%
Cc1nc2c(c(C)nn2C(C)(C)C)c(C)c1CCC(=O)Nc1ccc(F)cc1 -4.97%
Cc1ccc2oc(C(=O)Nc3sc4c(c3C(=O)NCc3ccco3)CCC4)cc(=O)c2c1 -11.9%
Cc1nn2c(=O)cc(COC(=O)c3ccc(NC(=O)COc4ccccc4F)cc3)nc2s1 -13.4%
Cn1c(C(=O)NCc2cccc(Cl)c2)cc2oc3ccccc3c21 -12.6%
CC(=O)c1ccc(N2CCN(C(=O)CCCn3c(=O)[nH]c4ccsc4c3=O)CC2)cc1 -16.8%
COc1ccccc1CCNC(=O)C1CCN(c2nnc(C)c3c(C)n(-c4ccc(C)cc4)nc23)CC1 -3.12%
Cc1ccc(Cn2c(CN3CCN(c4cccc(Cl)c4)CC3)nc3c2c(=O)n(C)c(=O)n3C)cc1 -24.7%
O=[N+]([O-])c1ccc(O)c(-c2ccnc3cc(-c4ccccc4)nn23)c1 -5.58%
COCCCNC(=O)c1ccc(Cn2c(=O)c3cccn3c3cccnc32)cc1 -34.1%
Cc1nn(CC(=O)NCc2ccc(N(C)C)cc2)c(=O)c2nn(-c3ccccc3)c(C)c12 -16%
CC(C)CC(=O)OCc1cc(=O)n2nc(C3CCCCC3)sc2n1 -6.59%
COc1ccccc1CNC(=O)C1CCN(c2nnc(C)c3c(C)n(-c4ccccc4)nc23)CC1 -2.82%
Cc1ccc2c(=O)cc(C(=O)Nc3c(C(=O)c4ccc(F)cc4)oc4ccccc34)oc2c1C -5.05%
CSc1nn(CC(=O)Nc2cc(C)ccc2C)c(N)c1S(=O)(=O)c1ccccc1 1.41%
O=C(Nc1nnc(S(=O)(=O)N2CCCCCC2)s1)c1ccc(Cl)cc1 -9.95%
COc1ccc(NC(=O)CC(C)S(=O)(=O)c2cc3c(cc2C)NC(=O)CO3)cc1OC (stereo not given) -4.15%
COc1ccc(Nc2c(-c3ccsc3)nc3nc(C)cc(C)n23)cc1 -15.2%
COc1ccc(CCNC(=O)c2c(C)oc3ncn(CC(C)C)c(=O)c23)c(OC)c1 -11.8%
Cc1ccc(NC(=O)CN2C(=O)CC(c3ccc(C)c(C)c3)=Nc3ccccc32)cc1 -11.8%
CCOC(=O)Cn1c(=O)oc2cc(S(=O)(=O)N3CCN(c4ccc(F)cc4)CC3)ccc21 -0.0016%
Cc1cccc(C)c1OC(=O)CSc1nnc(-c2ccc3c(c2)OCO3)o1 3.98%
CCC(CC)C(=O)Nc1cc(-c2nc3cccnc3s2)ccc1C -8.57%
CCCOc1cccc(C(=O)Nc2cccc(NC(=O)c3ccc(Cl)cc3Cl)c2)c1 -8.6%
Cc1ccc(C(C)C)c(OCC(=O)Nc2ccc(O)c(-c3nc4cc(Cl)ccc4o3)c2)c1 -12.4%
COC(=O)c1c(C)sc(-c2c(-c3ccc(OC)c(F)c3)[nH]c3c2c(=O)n(C)c(=O)n3C)c1O -9.87%
CCSc1nc2ccccc2c(OCc2cc(C(=O)OC)ccc2OC)c1C(=O)OC 5%
CC(C)C(=O)Nc1nnc(S(=O)(=O)N2c3ccccc3CC2C)s1 (stereo not given) -9.46%
COc1ccc(CNC(=O)CN(C)S(=O)(=O)c2ccc3c(c2)c(=O)n(C)c(=O)n3C)cc1 -4.66%
COc1cccc(C(c2sc3nc(-c4ccco4)nn3c2O)N2CCN(C)CC2)c1 (stereo not given) -11%
COc1ccc(C(=O)Oc2cc(-c3ccc(OC)c(OC)c3)cc(=O)c3c(C)oc(C)c23)cc1 -19.8%
CCS(=O)(=O)Nc1ccc(-c2cn3c(C)csc3n2)cc1 -24.8%
CCOC(=O)c1c(-c2ccccc2)oc2ccc(OCc3cccc(Br)c3)cc12 -13.6%
CCN1C(=O)c2ccccc2S(=O)c2ccc(C(=O)NCc3ccc(Cl)cc3)cc21 (stereo not given) -8.29%
CCN(c1cccc(C)c1)S(=O)(=O)c1c(C)nc2sc(C)cn2c1=O -13.7%

Source: PubChem BioAssay AID1159614 (National Center for Advancing Translational Sciences (NCATS), 2016)
